From paper PMC4336329 (PLoS ONE, 2015)
The whole screen tested about 310,000 compounds, of which about 2,200 (0.71%) showed an effect of 50% or more. The effect is printed as a negative number. The list shows a part of the results.

Molecular target: human ether-à-go-go-related gene (hERG) potassium channel (human, UniProt Q12809)
Experiment: primary screen, population patch clamp on CHO cells stably expressing hERG

Sequence of human ether-à-go-go-related gene (hERG) potassium channel (Q12809 whole entry, looked up): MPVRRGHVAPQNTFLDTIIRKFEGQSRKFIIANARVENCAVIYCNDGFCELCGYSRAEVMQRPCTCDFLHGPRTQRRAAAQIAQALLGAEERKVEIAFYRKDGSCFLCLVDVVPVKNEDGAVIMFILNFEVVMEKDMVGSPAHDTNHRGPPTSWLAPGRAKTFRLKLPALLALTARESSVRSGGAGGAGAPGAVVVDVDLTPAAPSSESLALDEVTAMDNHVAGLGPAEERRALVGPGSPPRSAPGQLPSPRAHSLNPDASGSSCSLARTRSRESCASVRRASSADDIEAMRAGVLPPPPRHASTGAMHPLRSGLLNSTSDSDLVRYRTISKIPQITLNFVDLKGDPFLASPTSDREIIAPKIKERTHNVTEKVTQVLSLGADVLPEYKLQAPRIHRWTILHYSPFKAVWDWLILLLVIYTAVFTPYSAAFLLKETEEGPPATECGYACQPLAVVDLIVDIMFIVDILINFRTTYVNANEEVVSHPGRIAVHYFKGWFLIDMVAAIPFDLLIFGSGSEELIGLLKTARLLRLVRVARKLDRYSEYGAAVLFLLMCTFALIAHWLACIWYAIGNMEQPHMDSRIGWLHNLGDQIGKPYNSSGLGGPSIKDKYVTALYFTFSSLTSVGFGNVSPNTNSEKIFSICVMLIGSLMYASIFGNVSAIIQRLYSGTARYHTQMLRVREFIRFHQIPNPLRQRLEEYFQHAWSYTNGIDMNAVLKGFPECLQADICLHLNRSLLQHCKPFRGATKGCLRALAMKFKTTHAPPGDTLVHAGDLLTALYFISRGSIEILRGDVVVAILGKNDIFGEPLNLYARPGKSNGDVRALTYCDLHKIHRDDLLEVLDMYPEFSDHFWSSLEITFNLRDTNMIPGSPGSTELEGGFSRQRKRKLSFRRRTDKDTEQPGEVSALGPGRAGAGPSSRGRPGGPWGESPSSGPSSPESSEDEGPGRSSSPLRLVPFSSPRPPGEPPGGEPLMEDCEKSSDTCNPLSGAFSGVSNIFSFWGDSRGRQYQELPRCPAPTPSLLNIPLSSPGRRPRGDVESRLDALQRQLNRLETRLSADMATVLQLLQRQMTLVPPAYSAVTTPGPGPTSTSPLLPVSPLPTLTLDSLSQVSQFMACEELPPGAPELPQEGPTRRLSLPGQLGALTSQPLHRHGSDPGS

Structure (SMILES) | hERG current change (%, negative = inhibition) at 1uM [%]
COc1c(C(=O)Nc2ccc3[nH]c(=O)[nH]c3c2)cc2ccccc2c1Br | 14.8
COc1cc(CN2CCC(C(=O)N3CCN(c4ccccc4F)CC3)CC2)cc(OC)c1O.O=C(O)C(=O)O | 3.07
O=C(NCc1nc2ccccc2[nH]1)C1=C[C@@H](C2CCCCC2)C[C@@H](OCc2ccc(CO)cc2)O1 | 15.6
CC(=Nc1ccc(Br)cc1)c1sc2ccccc2c1O | 6.54
CCN(CC(=O)Nc1ccc(NC(C)=O)cc1)C(=O)c1cccc2ccccc12 | 8.51
CC(Sc1nnnn1-c1ccc(Cl)cc1)C(=O)NCC(=O)Nc1ccc(F)c(F)c1F (stereo not shown) | 17.5
CCOc1ccc(NC(=O)/C(C#N)=C/c2ccc(N3CCCC3)c(C)c2)cc1 | 5.17
CCn1c(C)cc(/C=C2/NC(=O)N(CC(=O)Nc3cccc(C)c3)C2=O)c1C | 8.36
COCCn1cc(C(=O)NCc2cccs2)c2c3ccccc3n(C)c2c1=O | 10
CN(C)CCCN(C(=O)c1ccc(S(=O)(=O)N2CCCC2)cc1)c1nc2c(F)cc(F)cc2s1.Cl | 5.61
COc1ccc(NC2CC(=O)N(CCc3ccccc3)C2=O)cc1 (stereo not shown) | 4.51
CSc1ccc(CCNC(=O)c2cc(-c3ccccc3)c(N3CCOCC3)s2)cc1 | 6.2
CC(=O)NC(Cc1ccccc1)C(=O)OCC(=O)c1ccccc1 (stereo not shown) | 4.85
Cc1nc2c(sc(=S)n2Cc2ccco2)c(=O)n1CC(=O)Nc1ccccc1Cl | 5.26
C[C@]12CC[C@H](O)C[C@H]1CC[C@@H]1C2CC[C@]2(C)[C@@H](C3=CC(=O)OC3)[C@@H](O)C[C@]12O (stereo partly shown) | 13.5
CC(=O)Cc1nsc(NC(=O)c2cc(-c3ccc(Cl)c(Cl)c3)oc2C)n1 | 12.2
COc1ccc(/C=N/NC(=O)c2ccncc2)cc1CSc1nc2ccccc2s1 | 15.2
Cc1[nH]n(-c2ccccc2)c(=O)c1C(=O)c1ccc(Cl)cc1 | 15.9
O=C(NC1CC1)C1=C[C@@H](c2ccccc2)C[C@@H](OCc2ccc(CO)cc2)O1 | 3.99
CC1=C(C#N)C(c2ccc(O)cc2)C(C#N)=C(C)N1 | 9.37
Cc1cc(NC(=O)CSc2nnc(-c3ccco3)n2C)no1 | 11.8
O=S(=O)(Nc1c(F)cccc1F)c1ccc(Cl)nc1 | 26.5
CCOC(=O)Cc1nnc(Nc2cc(C)ccc2C)c2ccccc12 | -1.18
COC(=O)C(O)(c1ccc(N=Cc2ccccc2O)c(C)c1)C(F)(F)F (stereo not shown) | 12.2
O=C(O)c1cccc(Nc2nc(-c3cc4ccccc4oc3=O)cs2)c1 | 13.5
CCn1c(=NC(=O)C2COc3ccccc3O2)sc2c(C)ccc(OC)c21 (stereo not shown) | 11
Clc1ncccc1-c1nc2ccccc2n1Cc1ccccc1 | -4.59
CC(C)(C)Cc1nnc(NC(=O)c2ccc3c(c2)OCO3)s1 | 19.8

Structure (SMILES) | hERG current change (%, negative = inhibition) at 1uM [%]
COc1ccc(Oc2ncnc3c2ncn3Cc2ccccc2)cc1 | -0.583
COc1ccc(S(=O)(=O)N2CCC3(CC2)CC(=O)c2ccccc2O3)cc1 | -10.6
CCOC(=O)C1CCN(C(C(=O)NC2CCCC2)c2ccc(C)cc2)CC1 (stereo not shown) | 6.01
CCc1ccccc1N(C(=O)c1cccs1)C1C=CS(=O)(=O)C1 (stereo not shown) | -4.94
CC(=O)Nc1ccc(NC(=O)c2ccccc2CC[N+](=O)[O-])cc1 | 8.71
Cc1nn(C)c(Cl)c1NC(=O)OCc1ccc(F)cc1 | 9.59
CSc1nnc([C@@H](N)Cc2ccccc2)o1.Cl | -11.6
O=[N+]([O-])c1cccc(/C=N/Nc2ccccn2)c1 | 14.2
CC(C)C(=O)Nc1ccc(NC(=S)NC(=O)c2ccccc2F)cc1 | 5.21
CN(C)S(=O)(=O)c1cccc(NC(=O)CSc2nc3ccccc3n2-c2ccccc2)c1 | 10.5
Cc1ccc(S(=O)(=O)NC2CCCCC2)c(C)c1NS(C)(=O)=O | 11.8
COCCNC(=S)NNc1ccccc1[N+](=O)[O-] | 11.6
Cc1ccc(C)c(C(C)NC(=O)C2CCCO2)c1 (stereo not shown) | 20.6
C/C(CC(=O)Nc1ccc(C)c(Cl)c1)=N\NC(=O)c1cccc(O)c1 | 17.8
CCOc1ccc(C(=O)NN2C(=O)C3C4C=CC(O4)C3C2=O)cc1 (stereo not shown) | 4.94
O=C(N[C@H](C(=O)O)c1ccccc1)C1CCC(Cn2cnc3ccccc3c2=O)CC1 (stereo partly shown) | 10.6
CSc1nc(N)n2nc(-c3ccccc3)cc2n1 | 10.8
CCOc1ccccc1NC(=O)c1cc(SC)ccc1Cl | 29.3
CCOC(=O)Cc1nn(Cc2ccccc2)c(=O)c2ccccc12 | 5.61
Cc1ccc(C(=O)OCC(=O)N(C)C2CCS(=O)(=O)C2)cc1[N+](=O)[O-] (stereo not shown) | 13.7
COc1ccc(/C=N\NC(=O)c2ccccc2Cl)cc1COc1c(F)c(F)c(F)c(F)c1F | 8.28
O=C(NNC(=O)c1ccc(F)cc1)c1ccncc1 | 13.1
COc1ccc(CN(C)C(=O)Cc2c[nH]c3ccccc23)cc1 | 15.6
CCCCSc1nnc(-c2cc3c(C(F)(F)F)nn(C)c3s2)n1C | 10.1
C/C(=N\NC(=O)c1ccncc1)c1c(O)n(-c2ccccc2)c(=O)[nH]c1=O | 7.14
O=C(c1cccc(S(=O)(=O)Nc2ccccc2Cl)c1)N1CCC1 | 12.9
CCn1c(SCC(=O)Nc2cc(C)on2)nnc1-c1cccs1 | 4.31
